From a compilation of properties of binary mixtures (doi:10.1021/je900865y)
Some of these densities may be calculated back from excess volumes.

Assay: xn = mol fraction of the nth substance listed
Conditions: 101 kPa

CCCC[n+]1ccn(C)c1.N[C@@H](CCC(=O)O)C(=O)[O-] + O
mass density [kg/m3]
Conditions | x2 = 0.0032 | x2 = 0.0156 | x2 = 0.0367 | x2 = 0.0541 | x2 = 0.1107 | x2 = 0.1439 | x2 = 0.1451 | x2 = 0.1613 | x2 = 0.1759
308.15 K | – | – | – | – | 1183.8 | 1181.1 | 1180.8 | 1179.2 | 1177.9
313.15 K | – | – | – | – | 1181.2 | 1178.6 | 1178.2 | – | 1175.6
318.15 K | 1186.2 | 1185.3 | 1183.8 | 1182.3 | 1178.2 | 1175.5 | 1175.1 | – | 1172.6
323.15 K | 1184.1 | 1183.2 | 1181.6 | 1180.2 | 1176.3 | 1174 | 1173.5 | 1172.3 | 1171.2
328.15 K | 1181.9 | 1181 | 1179.5 | 1178.4 | 1174.8 | 1172.1 | 1171.9 | – | 1169.8
333.15 K | 1179.4 | 1178.4 | 1177.3 | 1176 | 1172.3 | 1170.2 | 1170 | 1169.1 | 1167.4
338.15 K | 1177 | 1176.1 | 1175 | 1173.9 | 1170.8 | 1168.4 | – | 1167.1 | 1166
343.15 K | – | – | 1173.3 | 1172.6 | 1169.5 | – | 1166.9 | – | 1165
